Reference: PubChem BioAssay AID686970 (National Center for Advancing Translational Sciences (NCATS), 2013)
Among all 360,000 compounds or so, about 6,000 (1.7%) were called active. Inconclusive results, whose numbers are uncertain, are shown with a selection of clear calls. The call rests on the fitted dose curve; in most records, active means well fitted cell-killing curve with a large enough effect; inconclusive means small, poorly fitted or top-dose-only effect, or effect the other way; inactive means flat fitted curve, though single readings scatter. No potency is given beside an inconclusive call; the fits are too rough.

Assay: qHTS for induction of synthetic lethality in tumor cells producing 2HG: qHTS for the HT-1080-NT fibrosarcoma cell line;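 further: NT is the 2HG producing partner of a matched IDH1 knockdown line; nearly all actives have a fitted effect of over 55% in size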;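 on activity, negative = less viability: 0% = DMSO-treated cells and -100% = media-only wells without cells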
Conditions: HT-1080-NT fibrosarcoma viability, CellTiter-Glo ATP luminescence, 48 h; activity, negative = less viability: at 46.1 µM (top of the series) unless noted
Procedure, shortened: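 750 cells/well, RPMI + 5% FBS; 2 h settle, compound pin-transfer, 48 h at 37 degrees C. CellTiter-Glo 10 min RT, luminescence. Normalized to DMSO and media-only wells.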
Potency means the concentration at half of the fitted maximal effect; tags describe the fitted curve by direction and shape.

With `COc1ccc(CC(=O)Nc2ccc(S(=O)(=O)Nc3ncccn3)cc2)cc1` as the compound, how does the “activity, negative = less viability” value read?
Its value is inactive: 16%.

Which Potency does the source give for `CN(C)c1ccc(CNC(=O)C2Cc3c(-c4cccc(C(N)=O)c4)ccnc3O2)cc1` (configuration not stated) here?
The Potency was inconclusive [cytotoxic, single point].

Which Potency does the source give for `COc1ccc2ccc(O)c(CN(C)CC(=O)Nc3ccccc3C(F)(F)F)c2c1` here?
The Potency was inconclusive [cytotoxic, single point].

With `CC(C)(C)NC(=O)C(c1ccc(C#N)cc1)n1c(=O)c(-c2cc3ccccc3[nH]2)nc2ccccc21` (configuration not stated) as the compound, how does the Potency read?
Its Potency is inconclusive [cytotoxic, single point].

With `CCOc1c(Cl)cc(C(=O)Nc2ccccc2-c2ccccc2)cc1Cl` as the compound, how does the “activity, negative = less viability” value read?
The value was inactive: -1.72%.

For `Cc1ccccc1-n1nnnc1SC(C)C(=O)Nc1ccc(N2CCN(C)CC2)cc1` (configuration not stated), which Potency is on record?
Its Potency is inconclusive [cytotoxic, single point].

For `COC(CN(C(=O)CCl)C(C(=O)NC1CCCCC1)c1ccc(C)cc1)OC` (configuration not stated), which “activity, negative = less viability” value is on record?
The value was inactive: 7.61%.

For `CCNC(=O)C1(C)CCN(C(=O)c2ccc3snnc3c2)C1` (configuration not stated), which Potency is on record?
The Potency was inconclusive [rising, single point].

With `CC(C)CNC(=O)c1ccccc1NC(=O)CCSc1ccccc1` as the compound, how does the “activity, negative = less viability” value read?
The value was inactive: 4.47%.

Which Potency does the source give for `Cc1ccc(-c2cnc(C(O)c3cc(Cl)cc(Cl)c3)[nH]2)cc1` (configuration not stated) here?
Its Potency is inconclusive [cytotoxic, single point].

With `COc1ccc(C(C)NC(=O)c2ccc(Br)cc2)cc1OC` (configuration not stated) as the compound, how does the “activity, negative = less viability” value read?
Its value is inactive: 2.44%.

With `COc1c2ccoc2c(OC[C@@H](O)C(C)(C)O)c2oc(=O)ccc12` as the compound, how does the Potency read?
The Potency was inconclusive [rising, partial curve, poor fit].

With `Cc1[nH][nH]c(=O)c1C(c1ccc(-c2ccc(F)cc2)o1)c1c(C)[nH][nH]c1=O` as the compound, how does the Potency read?
The Potency was inconclusive [cytotoxic, single point].

With `Cc1cc(=O)n2nc(-c3ccc(C(F)(F)F)cc3)sc2n1` as the compound, how does the Potency read?
The Potency was inconclusive [rising, partial curve].

With `CC(O)(c1ccc(F)c(F)c1)c1nc(-c2cc(F)cc(F)c2)cs1` (configuration not stated) as the compound, how does the activity, negative = less viability read?
The activity, negative = less viability was inconclusive: -78.6%.

For `CC(C)[C@H](NC(=O)c1ccccc1F)C(=O)OCCN1C(=O)c2ccccc2C1=O`, which “activity, negative = less viability” value is on record?
Its value is inactive: 9.42%.

For `COc1ccc(C(CNC(=O)c2ccc(S(=O)(=O)N3CC(C)CC(C)C3)cc2)N(C)C)cc1` (configuration not stated), which Potency is on record?
Its Potency is inconclusive [cytotoxic, partial curve].

Which Potency does the source give for `NC(N)=N/N=C/c1cccc(Cl)c1Cl` here?
The Potency was active: 23.1 µM.

With `CCN(CC)S(=O)(=O)c1ccc(NC(=O)c2ccc(CN3CCOCC3)cc2)cc1` as the compound, how does the Potency read?
Its Potency is inconclusive [cytotoxic, partial curve].

For `COc1ccc(CNC(=O)c2ccc3ccccc3n2)cc1OC`, which Potency is on record?
The Potency was inconclusive [cytotoxic, single point].

Which Potency does the source give for `O=C(Nc1ccc2c(c1)OCCO2)C(C1CC1)n1c(=O)c(-c2cc3ccccc3[nH]2)nc2ccccc21` (configuration not stated) here?
The Potency was inconclusive [cytotoxic, single point].

With `CC(C)C[C@H](NC(=O)OC(C)(C)C)C(=O)N1CCC(C(=O)N[C@@H](Cc2ccccc2)C(=O)O)CC1` as the compound, how does the “activity, negative = less viability” value read?
The value was inactive: 0.886%.

For `CC(C)(C)c1ccc(CC(=O)N2CCC2(C)C(=O)NCc2ccc3c(c2)OCO3)cc1` (configuration not stated), which Potency is on record?
Its Potency is inconclusive [cytotoxic, single point].

With `COc1cccc(/C=N/NC(=O)C(=O)N2CCCCCC2)c1O` as the compound, how does the Potency read?
Its Potency is inconclusive [cytotoxic, single point].

With `CN(C)C(=O)c1cccc(COc2ccc(N3C(N)=NC(N)=NC3(C)C)cc2Cl)c1` as the compound, how does the Potency read?
Its Potency is active: 0.0082 µM.

With `CC(c1ccco1)N(C(=O)c1ccccc1NS(=O)(=O)c1cccc([N+](=O)[O-])c1)c1ccccn1` (configuration not stated) as the compound, how does the Potency read?
Its Potency is inconclusive [cytotoxic, partial curve].

With `O=C1CC[C@H](O)CCN1[C@H](CSc1ccccc1)Cc1ccccc1` as the compound, how does the “activity, negative = less viability” value read?
The value was inactive: 11.2%.

For `O=S(=O)(Nc1ccc(-c2csc(-c3ccccc3)n2)cc1)c1ccccc1`, which Potency is on record?
The Potency was inconclusive [cytotoxic, single point].

Which Potency does the source give for `NC(=O)COC(=O)c1ccc(Cl)c(S(=O)(=O)N(Cc2ccccc2)c2ccc(Cl)cc2)c1` here?
Its Potency is inconclusive [cytotoxic, single point].

With `CC(O)(c1cccc(F)c1)c1nc(-c2ccccc2)cs1` (configuration not stated) as the compound, how does the Potency read?
The Potency was inconclusive [cytotoxic, single point].

For `CSc1ccccc1NC(=S)N/N=C/c1cccn1Cc1cccc(C)c1`, which Potency is on record?
The Potency was inconclusive [rising, single point].

Which Potency does the source give for `Cc1ccsc1/C=N/NC(=O)c1ccc2ccccc2c1` here?
Its Potency is inconclusive [cytotoxic, partial curve].

For `CCc1nc2sc3ccccc3c(=O)c2c(=O)n1Cc1ccco1`, which Potency is on record?
Its Potency is inconclusive [cytotoxic, partial curve, poor fit].

With `c1ccc(Nc2nc(NCc3ccco3)c3ccccc3n2)cc1` as the compound, how does the Potency read?
Its Potency is active: 20.6 µM.

Which Potency does the source give for `COc1cc(/C=C/C(=O)c2ccc(NS(=O)(=O)c3ccc(C)cc3)cc2)cc(OC)c1O` here?
Its Potency is inconclusive [cytotoxic, single point].

For `COC(=O)CN1C(=O)Nc2ccc(Br)cc2C1c1ccccc1Cl` (configuration not stated), which Potency is on record?
Its Potency is inconclusive [cytotoxic, single point].

With `O=C(N/N=C/c1sc(N2CCOCC2)nc1-c1ccccc1)c1cccc(S(=O)(=O)N2CCOCC2)c1` as the compound, how does the Potency read?
Its Potency is active: 3.66 µM.

Which Potency does the source give for `CC(=O)Nc1ccc(CN(C)c2c(C)nc3ccc(C(=O)NC4CCN(Cc5ccccc5)CC4)cn23)cc1` here?
Its Potency is inconclusive [cytotoxic, single point].

For `COc1ccc(C(=O)CCC(=O)NC2=NCCS2)cc1`, which activity, negative = less viability is on record?
Its activity, negative = less viability is inconclusive: 29.8%.

With `Cc1ccc2cc(CN(CCN3CCCC3)C(=O)Nc3ccccc3)c(=O)[nH]c2c1C` as the compound, how does the Potency read?
Its Potency is inconclusive [cytotoxic, partial curve].

For `O=CNc1cc(-c2cccc(O)c2)cn2c(-c3ccc(F)cc3)cnc12`, which Potency is on record?
Its Potency is inconclusive [cytotoxic, partial curve].

For `C(=C\c1ccccc1)/C=N/Nc1nc2ccccc2[nH]1`, which Potency is on record?
Its Potency is inconclusive [cytotoxic, partial curve].

For `Oc1ccc(/C=N\Nc2nncc(-c3ccccc3)n2)cc1`, which Potency is on record?
The Potency was inconclusive [cytotoxic, partial curve].

Which Potency does the source give for `Cc1ccc(S(=O)(=O)N2[C@@H](c3ccc(C(C)(C)C)cc3)C(C(=O)O)=CC[C@H]2c2ccc(C(C)C)cc2)cc1` here?
The Potency was inconclusive [cytotoxic, single point].

Which Potency does the source give for `CN(C)c1nc(N/N=C\c2ccc(Cl)c([N+](=O)[O-])c2)nc(Nc2ccc(F)cc2)n1` here?
Its Potency is inconclusive [cytotoxic, single point].

With `Cc1cc(/C=C2/C(=N)N3C(=NC2=O)SN=C3S(C)(=O)=O)c(C)n1-c1ccc(F)cc1` as the compound, how does the Potency read?
The Potency was inconclusive [cytotoxic, single point].

Which “activity, negative = less viability” value does the source give for `CC(C)c1ccc(NC(=O)Nc2nc(CN)cs2)cc1` here?
The value was inactive: -16.5%.

With `CC(=O)c1cccc(NC(=O)CCc2nc3sc4c(c3c(=O)[nH]2)CCCC4)c1` as the compound, how does the Potency read?
Its Potency is inconclusive [cytotoxic, partial curve].

Which “activity, negative = less viability” value does the source give for `COCc1c(C(=O)NC(C)c2ccc(S(N)(=O)=O)cc2)oc2ccccc12` (configuration not stated) here?
Its value is inactive: 13.3%.

For `O=C(Cc1ccccc1F)Nc1cc(S(=O)(=O)N2CCOCC2)ccc1N1CCCC1`, which “activity, negative = less viability” value is on record?
The value was inactive: 3.66%.

With `CCSC(=O)N=Nc1ccc(O)cc1` as the compound, how does the Potency read?
The Potency was inconclusive [cytotoxic, single point].

With `CCCCC(=O)c1c(O)c2ccccc2oc1=O` as the compound, how does the Potency read?
The Potency was inconclusive [cytotoxic, single point].

For `CCN(CC)S(=O)(=O)c1cccc(NC(=O)CCNC(=O)NC23CC4CC(CC(C4)C2)C3)c1`, which “activity, negative = less viability” value is on record?
Its value is inactive: -13.6%.

With `CC(C(=O)O)N(c1ccccc1Cl)S(C)(=O)=O` (configuration not stated) as the compound, how does the “activity, negative = less viability” value read?
Its value is inactive: 0.925%.

Which Potency does the source give for `O=C(Nc1ccc2c(c1)Cc1ccccc1-2)c1ccccc1F` here?
Its Potency is inconclusive [cytotoxic, single point].

For `COc1ccc(CCn2c(=N)c(C(=O)NCc3ccco3)cc3c(=O)n4cccc(C)c4nc32)cc1`, which Potency is on record?
The Potency was inconclusive [cytotoxic, single point].

With `CCc1nnc(NC(=O)CSc2nnc(-c3ccccc3O)n2-c2ccc(C)cc2)s1` as the compound, how does the Potency read?
Its Potency is active: 13 µM.

With `O=C(Oc1c(CN2CCOCC2)cc(Cl)c2cccnc12)c1cccs1` as the compound, how does the Potency read?
Its Potency is active: 2.91 µM.

Which Potency does the source give for `O=C1CC(c2ccccc2)Cc2nc3ncnn3cc21` (configuration not stated) here?
The Potency was active: 11.2 µM.

For `COc1ccc2nc(C)cc(SCC(=O)NNC(=O)COc3cccc4ccccc34)c2c1`, which Potency is on record?
Its Potency is inconclusive [cytotoxic, single point].

Which Potency does the source give for `Cc1ccc2c(CC(=O)OCC(=O)N(CC(C)C)c3c(N)n(Cc4ccccc4)c(=O)[nH]c3=O)coc2c1` here?
Its Potency is inconclusive [cytotoxic, single point].

With `CCOC(=O)N1CCN(C(=O)c2ccc3c(c2)N(Cc2ccccc2)CCS3)CC1` as the compound, how does the “activity, negative = less viability” value read?
Its value is inactive: 2.76%.

With `CCOc1c(OC(C)=O)ccc(/C=C/c2ccc3cccc(OC(C)=O)c3n2)c1[N+](=O)[O-]` as the compound, how does the Potency read?
The Potency was inconclusive [cytotoxic, single point].

With `O=c1[nH]c(=S)ccn1C1OC(CO)C(O)C1O` (configuration not stated) as the compound, how does the Potency read?
Its Potency is inconclusive [cytotoxic, single point].

Which Potency does the source give for `COc1cccc(NC(=O)[C@H](CC(C)C)NC(=O)[C@@H]2Cc3ccccc3CN2)c1` here?
Its Potency is inconclusive [cytotoxic, single point].

For `O=C(NCc1ccccc1)c1cccc(NC(=O)c2ccco2)c1`, which Potency is on record?
The Potency was inconclusive [cytotoxic, full curve].

Which “activity, negative = less viability” value does the source give for `Cc1ccc(C(=O)C(C)Oc2ccc3ccc(=O)oc3c2)cc1` (configuration not stated) here?
The value was inactive: 5.31%.
